Test results: a collection of fitness landscapes (doi:10.1016/j.celrep.2020.107928)
The full ranking holds about 81,000 sequences; the median of “one-hybrid fitness for binding parS DNA” is about -0.17, and the highest 2% start at about 0.51. This is one part of the list.

B1: Caulobacter ParB omega fusion; a variant is named by its letters at X, in order, B8GW30 (parent)
chain: MESVVVGEPGMSEGRRGLGRGLSALLGEVDAAPAQAPGEQLGGSREAPIEILQRNPDQPRRTFREEDLEDLSNSIREKGVLQPILVRPSPDTAGEYQIVAGERAWRAAQRAGLKTVPIMVRELDDLAVLEIGIIENVQRADLNVLEEALSYKVLMEKFERTQENIAQTIGKSXSHVANXMRLLXLPDEVQSYLVSGELTAXHARAIAAAADPVALAKQIIEGGLSVRETEALARKAPNLSAGKSKGGRPPRVKDTDTQALESDLSSVLGLDVSIDHRGSTGTLTITYATLEQLDDLCNRLTRGI

Variants of: B1
Experiment: one-hybrid fitness for binding parS DNA (scaled: cognate 1, non-cognate 0); higher = stronger binding
Conditions: with parS DNA site
Summary of the method: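 Fitness is the rescaled log change in variant-to-wild-type read ratio, measured by Illumina sequencing of plasmids before and after bacterial one-hybrid selection. The scale puts cognate at 1 and non-cognate at 0. Selection of Caulobacter ParB libraries, four specificity codons randomised, took place in E. coli USO with a HIS3 reporter, site 19 bp from the promoter, over 48 hours at 37°C on M9-minus-histidine with 0.1 mM IPTG and 5 mM 3-AT.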

one-hybrid fitness for binding parS DNA, 0.535:
RNWT

one-hybrid fitness for binding parS DNA, 0.436:
RTFN

one-hybrid fitness for binding parS DNA, 0.26:
MILS

one-hybrid fitness for binding parS DNA, ≤ 0.2:
ITKA
AINR
ASYL
LLDN
QSHK
MPMY
CNLY
QMVP
TQNE
WNLP
PHTF
LVLC
RLTR
APHS
TQNK
TFKG
RCDR
RAFL
FPLI
WLCR
HLSI
ATNK
SVDI
AKTF
PVYI
SCES
YLPE
PKMS
GDRV
LSTM
MAIC
ASSY
YMLN
REQG
LPPE
CRGG
ELRY
CRYG
TSKC
QMYN
DTER
ALNF
FMTP
WNIV
DMYS
LFQS
ARRD
QAEM
TRLP
RLDQ
KLQT
DRGC
RPHG
CTDS
NMFN
PHRK
KSKH
NRTI
YSCT
YRDT
CGRV
LLTG
QPAK
GFQS
HIPL
IGPL
APDR
ISHT
RMEW
CSHI
GVMW
QADA
CRAL
KIAL
QLCN
KYNI
WAPV
GRIP
YTTE
NGYC
RWQV
NPVG
HYNT
LLSW
TPGA
WMAT
SKLC
LDTG
KLIR
WPCC
ALAH
QMET
NWRV
KRLH
MCDG
HTQT
EWIR
HTGH
RWSK
PTHF
QGAY
PYQW
KLLF
CMAL
AHVR
VKER
ANGG
YCSG
TLNT
RTWI
HVDM
EMAM
SPRS
QHTA
MGQN
NCRE
MRVQ
KCGT
TLTI
YPDM
NMCN
QVYV
DTQT
TPNN
CVYR
HPQM
EVIR
QKFI
NSRP
RPLF
RHAL
TSTM
KYAE
VENR
PIRN
NGAF
YHMT
PDIL
SYTV
LPMC
MLDS
RTLI
SGKA
LMWS
LCMI
QDHT
HRRE
MQKM
RHIE
RGFY
LGDP
IEMG
KSTC
QLYH
KCYS
NTMR
PVYK
VLYL
HCER
MLPI
ARLQ
CGRR
DTVC
YRWR
CHNT
YMTI
PDLN
RVAE
PIYS
NICS
PVLR
QTYV
AESI
PSFM
HSYG
VWTW
VTIR
LCTE
ASRR
VAQA
AAHG
GLDY
KALK
WQLV
ALIN
YYCY
PQAQ
MDRR

one-hybrid fitness for binding parS DNA, 0.25:
RFNW

one-hybrid fitness for binding parS DNA, 0.426:
RAFN

one-hybrid fitness for binding parS DNA, 0.46:
RVKN

one-hybrid fitness for binding parS DNA, 0.296:
RYYM
